In PubChem BioAssay AID463173 (ICCB-Longwood Screening Facility, Harvard Medical School, 2010):
Screen size: about 52,000 compounds; about 1,700 (3.3%) were called active. No stated cut-off is given here; in the data, active means survival mostly below about 52% (no sharp cut-off); inactive means mostly above about 56%. The list shows a part of the results.

Test system: Wild type
Assay: S. aureus survival, RN4220 and DeltatarO strains – OD600, teichoic acid synthesis inhibitors, primary screen (AID 463173)
Details: S. aureus RN4220 wild type/DeltatarO growth, OD600, 18 h, hits give low values; concentration not given here unless noted

Question: Which survival does the source give for `CCC12CN3CC(CC)(CN(C1)C3c1c(C)[nH]c(=O)[nH]c1=O)C2=O` (stereo not drawn) here?
Answer: The survival was inactive: 88%.

Question: Which survival does the source give for `O=C(O)c1cncc(O)c1` here?
Answer: Its survival is inactive: 105%.

Question: For `O=c1c2ccccc2nc(/C=C/c2cccc3ccccc23)n1-c1ccc(Cl)cc1`, which survival is on record?
Answer: The survival was inactive: 80%.

Question: How did the survival turn out when `CC(C(=O)c1ccc2ccccc2c1)N1CCCCC1` (stereo not drawn) was run?
Answer: The survival was inactive: 107%.

Question: `COc1ccc(OCC(=O)N2CCN(CCc3ccncc3)CC2)cc1` was tested. Which survival did it give?
Answer: The survival was inactive: 89%.

Question: Which survival does the source give for `O=C(O)CCC1C(=O)NC(=O)NC1=O` here?
Answer: Its survival is inactive: 112%.

Question: With `Cc1ccccc1-n1c(/C=C/c2c(C)[nH]c3ccccc23)nc2ccccc2c1=O` as the molecule, how does the survival read?
Answer: Its survival is active: 6%.

Question: `Cc1ccccc1-n1nc(C)c2c1NC(=O)CSC2c1ccc(Cl)cc1` (stereo not drawn) was tested. Which survival did it give?
Answer: The survival was inactive: 44%.

Question: With `CNC(=O)Oc1c(Br)cc2sc(=O)oc2c1Br` as the molecule, how does the survival read?
Answer: The survival was inactive: 112%.

Question: For `CN1CCCSC1=Nc1ccccc1F`, which survival is on record?
Answer: The survival was inactive: 110%.

Question: How did the survival turn out when `Cc1ccc(Cn2cccc(C(=O)Nc3cc(C)on3)c2=O)cc1` was run?
Answer: Its survival is inactive: 81%.

Question: For `Cc1c(C(c2ccc(Br)cc2)c2c(O)c3ccccc3oc2=O)c(=O)n(-c2ccccc2)n1C` (stereo not drawn), which survival is on record?
Answer: Its survival is inactive: 69%.

Question: Which survival does the source give for `O=C(Cn1cc(C(=O)c2ccccc2)c2ccccc21)NCc1ccco1` here?
Answer: The survival was inactive: 104%.

Question: With `Cc1cccc(-n2c(-c3ccco3)nc3ccccc3c2=O)c1` as the molecule, how does the survival read?
Answer: The survival was inactive: 96%.

Question: How did the survival turn out when `CN(C)c1ccc(NC(=O)c2sc3nc4c(cc3c2N)N2CCC4CC2)cc1` was run?
Answer: The survival was inactive: 114%.

Question: With `COc1ccc(Cc2c(O)[nH]c(=S)[nH]c2=O)cc1` as the molecule, how does the survival read?
Answer: Its survival is inactive: 116%.

Question: Which survival does the source give for `Cn1c(O)c(C=NCCN2CCN(C(=O)c3ccccc3)CC2)c(=O)n(C)c1=O` here?
Answer: The survival was inactive: 110%.

Question: For `CCNCC1(c2ccc(OC)c(OC)c2)CCCC1`, which survival is on record?
Answer: The survival was inactive: 112%.

Question: `CCCC12CN3CC(C)(CN(C1)C3c1c(C)[nH]c(=O)[nH]c1=O)C2=O` (stereo not drawn) was tested. Which survival did it give?
Answer: Its survival is inactive: 92%.

Question: With `O=C(COc1ccccc1)N1CCN(CC(O)COc2ccccc2)CC1` (stereo not drawn) as the molecule, how does the survival read?
Answer: Its survival is inactive: 111%.

Question: Which survival does the source give for `CCCC1=Nc2cc(C(=O)NCCCN(CC)CC)ccc2Sc2ccccc21` here?
Answer: The survival was inactive: 116%.

Question: For `COc1ccc(Br)cc1C1SCC(=O)Nc2c1c(C)nn2-c1ccccc1C` (stereo not drawn), which survival is on record?
Answer: Its survival is inactive: 68%.

Question: How did the survival turn out when `Cc1ccc(-c2nn3c(=O)cc(CN4CCN(C(=O)COc5ccc(C)c(C)c5)CC4)nc3s2)cc1` was run?
Answer: Its survival is inactive: 71%.

Question: How did the survival turn out when `CN1CCN(Cc2cn3ccccc3n2)CC1` was run?
Answer: Its survival is inactive: 119%.

Question: With `CCCC1(CCC)C(=O)NC(=Nc2ccccc2)NC1=O` as the molecule, how does the survival read?
Answer: Its survival is inactive: 107%.

Question: `Cc1ccc(-c2nc(CN3C(=O)CN=C(c4ccccc4)c4ccccc43)c(C)o2)cc1` was tested. Which survival did it give?
Answer: The survival was inactive: 72%.

Question: How did the survival turn out when `CCN(CC)C(=O)c1ccc(NC(=O)c2ccc(-c3nn(C)c(=O)c4ccccc34)cc2)cc1` was run?
Answer: The survival was inactive: 66%.

Question: How did the survival turn out when `Cc1ccc(Cn2cccc(C(=O)Nc3ccc4c(c3)OCCO4)c2=O)cc1` was run?
Answer: The survival was inactive: 72%.

Question: For `COC(=O)C1=C(C)OC(N)=C(C#N)C12C(=O)Nc1ccc(C)cc12` (stereo not drawn), which survival is on record?
Answer: The survival was inactive: 96%.

Question: For `COc1ccccc1C1SCC(=O)Nc2c1c(C)nn2-c1cccc(C)c1` (stereo not drawn), which survival is on record?
Answer: Its survival is active: -10%.

Question: Which survival does the source give for `COc1cccc(NC(=O)c2cccn(Cc3ccccc3C)c2=O)c1` here?
Answer: The survival was inactive: 77%.

Question: `OC1(c2cccnc2)CCNCC1` was tested. Which survival did it give?
Answer: The survival was inactive: 112%.

Question: With `CCC(C)N1CCN(Cc2ccccc2)CC1` (stereo not drawn) as the molecule, how does the survival read?
Answer: Its survival is inactive: 111%.

Question: With `CCCCC12CN3CC(C)(CN(C1)C3c1ccccn1)C2=O` (stereo not drawn) as the molecule, how does the survival read?
Answer: Its survival is inactive: 87%.

Question: For `Cc1cccc(-n2nc(C)c3c2NC(=O)CSC3c2ccccc2Cl)c1` (stereo not drawn), which survival is on record?
Answer: Its survival is inactive: 64%.

Question: For `CCOc1ccc(CN(CCc2ccc3c(c2)OCO3)Cc2ccc(C)cc2)cc1`, which survival is on record?
Answer: The survival was inactive: 35%.

Question: Which survival does the source give for `CC(C)Cc1nc2cccnc2n1C1CCNCC1` here?
Answer: The survival was inactive: 129%.

Question: With `Cc1ccc(NC(=O)Cn2cc(C(=O)c3ccccc3)c3ccccc32)c(C)c1` as the molecule, how does the survival read?
Answer: The survival was inactive: 81%.

Question: How did the survival turn out when `COc1ccc(-n2c(/C=C/c3cccc(F)c3)nc3ccccc3c2=O)cc1Cl` was run?
Answer: The survival was inactive: 80%.

Question: With `Cc1cccc(CN2C(=O)CN=C(c3ccccc3)c3ccccc32)c1` as the molecule, how does the survival read?
Answer: The survival was inactive: 73%.

Question: Which survival does the source give for `CCOC(=O)c1[nH]c(C)c(C=C(C#N)C#N)c1C` here?
Answer: Its survival is inactive: 101%.

Question: With `COc1cccc(C2SCC(=O)Nc3c2c(C)nn3-c2ccc(C)c(Cl)c2)c1OC` (stereo not drawn) as the molecule, how does the survival read?
Answer: Its survival is inactive: 96%.

Question: For `O=c1c2ccccc2nc(/C=C/c2ccccc2F)n1-c1cccc(O)c1`, which survival is on record?
Answer: The survival was active: 11%.

Question: For `CCc1nc(SC)ncc1C(=O)Nc1ccc(Cl)cc1C(=O)c1ccccc1`, which survival is on record?
Answer: Its survival is inactive: 73%.

Question: For `Cc1cccc(-c2nn3c(=O)cc(CN4CCN(C(=O)COc5ccc(Cl)cc5)CC4)nc3s2)c1`, which survival is on record?
Answer: The survival was inactive: 153%.

Question: With `Cc1cccc(CN2CCN(C(=O)COc3ccccc3)CC2)c1` as the molecule, how does the survival read?
Answer: The survival was inactive: 108%.

Question: Which survival does the source give for `CCn1cc(C=C(C#N)C#N)c2ccccc21` here?
Answer: Its survival is inactive: 104%.

Question: For `C=C1N2CCC(CC2)C1(O)c1ccc(C)cc1` (stereo not drawn), which survival is on record?
Answer: Its survival is inactive: 98%.

Question: `COc1ccc(NC(=O)CCc2nc(C3=CCN(Cc4cccc(Cl)c4)CC3)no2)c(OC)c1` was tested. Which survival did it give?
Answer: Its survival is inactive: 127%.

Question: How did the survival turn out when `O=S1(=O)N(Cc2ccccc2Cl)CCCN1Cc1ccccc1Cl` was run?
Answer: Its survival is active: -4%.

Question: `O=C(Nc1ccc2c(c1)OCO2)c1cccn(Cc2cccc([N+](=O)[O-])c2)c1=O` was tested. Which survival did it give?
Answer: The survival was inactive: 77%.

Question: How did the survival turn out when `CN1CCN(C(=O)COc2cccc3ccccc23)CC1` was run?
Answer: Its survival is inactive: 107%.

Question: With `Cc1ccccc1OCC(=O)N1CCN(CCc2ccccn2)CC1` as the molecule, how does the survival read?
Answer: The survival was inactive: 83%.

Question: `O=C1/C(=C\c2cc3c(cc2Cl)OCO3)N2CCC1CC2` was tested. Which survival did it give?
Answer: Its survival is inactive: 110%.

Question: For `COc1ccc(OCC(=O)N2CCN(Cc3cc(=O)n4nc(-c5ccc(OC)cc5)sc4n3)CC2)cc1`, which survival is on record?
Answer: The survival was inactive: 138%.

Question: For `COc1ccc(CC2C(=O)NC(=O)N(c3ccccc3)C2=O)c(OC)c1` (stereo not drawn), which survival is on record?
Answer: The survival was inactive: 114%.

Question: Which survival does the source give for `Cc1cccc(Cn2cccc(C(=O)Nc3ccc(F)cc3F)c2=O)c1` here?
Answer: The survival was inactive: 73%.

Question: How did the survival turn out when `Cc1ccc(OCC(=O)N2CCN(CCc3ccncc3)CC2)cc1` was run?
Answer: The survival was inactive: 85%.

Question: For `CC(C)c1ccc(OCC(=O)N2CCN(CCc3ccccn3)CC2)cc1`, which survival is on record?
Answer: The survival was inactive: 79%.

Question: How did the survival turn out when `COc1ccc(OCC(=O)N2CCN(Cc3ccc(SC)cc3)CC2)cc1` was run?
Answer: The survival was inactive: 127%.

Question: Which survival does the source give for `COc1ccccc1CN1CCN(Cc2ccccc2OC)CC1` here?
Answer: Its survival is inactive: 103%.

Question: `Cc1ccccc1-n1c(/C=C/c2ccc(N(C)C)cc2)nc2ccccc2c1=O` was tested. Which survival did it give?
Answer: Its survival is active: 7%.

Question: For `O=C(c1ccc2c(c1)N(Cc1ccc(F)cc1)C(=O)c1ccccc1S2)N1CCC2(CC1)OCCO2`, which survival is on record?
Answer: The survival was inactive: 69%.
